# The list shows a part of the results. Most values come without repeats; read them as rough.
# Test system: WM3619
# Experiment: cell count relative to DMSO control; melanoma cells; higher = more viable cells
# Conditions: library dose: standard library concentration; 72 h
# 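Also: cells treated in 1,536-well plates, then fixed and DAPI-stained, with nuclei counted from automated high-throughput microscope images.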
row,Structure (SMILES),cell count [%]
1,"NCC(=O)Nc1ccc(-n2nc(C(F)(F)F)cc2-c2ccc3c(ccc4ccccc43)c2)cc1 + CCN(CC)CCCCNc1ncc2cc(-c3cc(OC)cc(OC)c3)c(NC(=O)NC(C)(C)C)nc2n1 [PD173074] (first compound 5 µM, partner dose 0.5 µM)",8.39
2,"NCC(=O)Nc1ccc(-n2nc(C(F)(F)F)cc2-c2ccc3c(ccc4ccccc43)c2)cc1 + COc1ccc(COc2ccc(Cc3cnc(N)nc3N)cc2OC)cc1 [GW2580] (first compound 5 µM, partner dose 5 µM)",40.2
3,"Cc1nc(Nc2ncc(C(=O)Nc3c(C)cccc3Cl)s2)cc(N2CCN(CCO)CC2)n1 [dasatanib] + COc1ccc2c(c1)CCC1C2CCC2(C)C(NCCCCCCN3C(=O)C=CC3=O)CCC12 [U73122] (first compound 0.02 µM, partner dose 2 µM)",65.8
4,"C=CCn1c(=O)c2cnc(Nc3ccc(N4CCN(C)CC4)cc3)nc2n1-c1cccc(C(C)(C)O)n1 + Oc1nc(-c2ccc(C(F)(F)F)cc2)nc2c1CSCC2 [XAV939] (first compound 0.1 µM, partner dose 10 µM)",70.1
5,"CN(C)S(=O)(=O)c1ccc2c(c1)/C(=C/c1cc3c([nH]1)CCCC3)C(=O)N2 + O=S(=O)(c1ccccc1)N(CC(F)(F)F)c1ccc(C(O)(C(F)(F)F)C(F)(F)F)cc1 [T0901317] (first compound 2 µM, partner dose 7 µM)",78.7
6,"NCC(=O)Nc1ccc(-n2nc(C(F)(F)F)cc2-c2ccc3c(ccc4ccccc43)c2)cc1 + O=C(Nc1ccccc1)c1cc([N+](=O)[O-])ccc1Cl [GW9662] (first compound 5 µM, partner dose 10 µM)",51.2

# — the supplement of paper PMC4604168 (melanoma cell lines)
